Source: PubChem BioAssay AID1347417 (National Center for Advancing Translational Sciences (NCATS), 2020)
“And” between values parts separate entries of the source, which are not always exact repeats. Identical values can stand only once. In all, about 120,000 compounds went through this assay and about 5,300 (4.4%) were called active. This list was built around the results that the source calls inconclusive (neither active nor inactive); the mix of calls is not that of the screen. The call rests on the fitted dose curve; in most records, active means well fitted inhibition curve with a large enough effect; inconclusive means small, poorly fitted or top-dose-only effect; inactive means no such curve, though single readings can be large or run the other way. Where the call is inconclusive, the potency comes from a doubtful curve fit.

Experiment: qHTS Primary assay for Inhibitors of Plasmodium falciparum Dd2 growth in vitro; further: nearly all actives have a fitted effect of over 65% in size;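 on activity, negative = inhibition: plate controls were DMSO vehicle for no effect and reference drug for full effect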
Settings: P. falciparum Dd2 growth, SYBR Green, 72 h; activity, negative = inhibition: at 28.9 µM (top of the series) unless noted; series mostly up to 28.9 µM
Procedure, shortened: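 Readout: SYBR Green fluorescence, 485 nm excitation, 535 nm emission, after ~16 h lysis at 37C. Before that, Dd2-infected red cells (2.5% hematocrit) grew 72 h with compound, 29 uM top final concentration.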
Potency means the concentration at half of the fitted maximal effect; tags describe the fitted curve by direction and shape.

SMILES	outcome	Potency	activity, negative = inhibition
CN(C(=O)CN1C(=O)C(c2ccccc2)=NC12CCCC2)c1ccccc1	inactive		
COc1cccc([S+](=O)([O-])N2CCC3(CC2)C(=O)NCN3Cc2ccc(Cl)cc2)c1		inconclusive: 8.91 µM [inhibitor, partial curve, poor fit]	
O=C1N(CCc2ccccc2)c2ccccc2C12CCN([S+](=O)([O-])c1cccs1)C2 (stereo not drawn)		active: 7.94 µM and inconclusive: 11.2 µM [inhibitor, single point]	
COc1ccc(CNC(=O)CN2C(=O)NC(c3ccccc3Cl)C3=C2COC3=O)cc1 (stereo not drawn)	inactive		
COc1ccc([C@H]2C[C@@H](O)[C@@H](O)[C@@H]2NCc2ccc(OC)nc2)cc1		inconclusive: 11.2 µM [inhibitor, partial curve]	
CCOc1c(Br)cc(C2CC(=O)Nc3cc4c(cc32)OCO4)cc1OC (stereo not drawn)		active: 3.16 µM	
O=C1CO[C@H]2CCN(Cc3cccs3)CC[C@@H]2N1c1ccccc1		inconclusive: 15.8 µM [inhibitor, single point]	
O=C(Cn1nc2c(cc1=O)CCCCC2)N1CCSCC1		inconclusive: 11.2 µM [inhibitor, single point]	
O=C(O)CC1(CC(=O)N2CCN3C(=O)N(Cc4ccccc4)C(=O)[C@H]3C2)CCCC1		inconclusive: 0.316 µM [inhibitor, full curve, poor fit]	
NC1=NC(c2cccc(Cl)c2)n2c(nc3ccccc32)N1 (stereo not drawn)		inconclusive: 10 µM [inhibitor, single point]	
COc1ccc(C2(C(=O)N3CCCC(CN4CCOCC4)CC3)CC2)cc1 (stereo not drawn)		inconclusive: 12.6 µM [inhibitor, single point]	
CN(C(=O)[C@@H]1C[C@@H](c2ccc(F)cc2)N(CCOc2ccccc2)C1)c1cccnc1		inconclusive: 2.82 µM [inhibitor, full curve, poor fit]	
CCOC(=O)c1cnn(-c2ccc(C(=O)Nc3ccc(C(C)=O)cc3)cc2)c1N		inconclusive: 1 µM [inhibitor, full curve, poor fit]	
COCc1ccc2c(c1)c(OC(C)(C)C(=O)N1CCN(CCO)CC1)nn2Cc1cccnc1			inactive: -20.5%
CN1CCC2(C1)CN(Cc1ccccc1)c1ccc(C(=O)NC3CCC(O)CC3)cc12 (stereo not drawn)			inactive: 52.5% [at 44.1 µM]
COCc1cc(C[C@@H]2CC[C@H](O)[C@@H](CN(C(=O)Nc3ccccc3)C(=O)Nc3ccccc3)O2)no1			inactive: -16.4%
Cc1nnc(-c2cc(-c3ccc(N4CCOCC4)cc3)ccn2)n1Cc1ccccc1		inconclusive: 1.58 µM [inhibitor, partial curve, poor fit]	
CCCNC(=O)N(C1CCOCC1)C1CCN(C(=O)CCC(=O)c2ccc(F)cc2)CC1		inconclusive: 20 µM [inhibitor, partial curve, poor fit]	
O=c1cc(N2CCOCC2)oc2c(-c3ccccc3)nccc12			inactive: -17.9% [at 44.1 µM]

SMILES	outcome	Potency	activity, negative = inhibition
CCN(c1ccccc1)S(=O)(=O)c1c(-c2ccc(C)cc2)csc1C(=O)OC		inconclusive: 0.178 µM [inhibitor, full curve, poor fit]	
Fc1ccc(-c2nnc3ccc(N4CCN(Cc5ccccc5)CC4)nn23)nc1		inconclusive: 12.6 µM [inhibitor, single point]	
COCCN1CCCCCC(O)c2cc(C(=O)N3CCN(c4ccc(OC)cc4)CC3)ccc21 (stereo not drawn)		inconclusive: 4.47 µM [inhibitor, partial curve, poor fit]	
CCC1Oc2ccc(Cl)cc2N(CC(=O)NCCc2ccc(Cl)cc2)C1=O (stereo not drawn)			inactive: 3.24%
CN(C)c1ccc(C(=O)N[C@H]2CO[C@H]3[C@@H]2OC[C@@H]3n2cc(COc3ccccc3)nn2)cc1		inconclusive: 0.891 µM [inhibitor, full curve, poor fit]	
COc1ccc(/C=C/C(=O)Nc2ccc3nc(N4CCC(C)CC4)cc(C)c3c2)cc1		inconclusive: 6.31 µM [inhibitor, partial curve, poor fit]	
Cc1cccc(NC(c2ccccc2F)c2ccc3ccc(C)nc3c2O)n1 (stereo not drawn)		inconclusive: 3.55 µM [inhibitor, partial curve]	
CCCNC(=O)OC[C@H]1C[C@@H]2CCN1C[C@@H]2c1cc(-c2ccccc2OC)nn1C		inconclusive: 7.94 µM [inhibitor, partial curve, poor fit]	
O=C(Nc1cccc(F)c1)c1ccc2c(c1)N(Cc1ccccc1)C(=O)c1ccccc1S2(=O)=O		inconclusive: 11.2 µM [inhibitor, single point]	
COc1ccc(CN2CCc3oc(C)c(C(=O)NCCN4CCCC4)c3C2)cc1		inconclusive: 12.6 µM [inhibitor, single point]	
COCCOC1CCN(C(=O)Nc2ccc(C(=O)OC)cc2)CC1		inconclusive: 8.91 µM [inhibitor, partial curve, poor fit]	
O=C(NCc1ccc(Cl)cc1)C1CC(=O)N(c2n[nH]c3cccc(F)c23)C1 (stereo not drawn)			inactive: -3.67%
COc1ccccc1N1CCN(C(=O)CC[C@]23CC[C@](C)(O)C[C@H]2C(C)(C)C[C@@H]3NC(=O)c2ccc(C(F)(F)F)cc2)CC1		inconclusive: 1.12 µM [inhibitor, partial curve, poor fit]	
O=C(c1cncc(Br)c1)N1CCCC(CN2CCOCC2)CC1 (stereo not drawn)		inconclusive: 10 µM [inhibitor, single point]	
Cc1ccc(-c2nnc([C@H]3CCN(C(=O)C4CC4)C3)o2)cc1		inconclusive: 12.6 µM [inhibitor, partial curve, poor fit]	
COC[C@H]1CCCN1[C@@H]1[C@H](O)[C@H](CO)O[C@@H]1CN(Cc1ccc(F)cc1)Cc1ccc(F)cc1		active: 4.47 µM	
COc1ccc(C(=O)N2CCC(n3cc(-c4nc(C)no4)nn3)CC2)cc1			inactive: -14.1%
O[C@H]1CC[C@@H](Cc2cc(COc3ccccc3)on2)O[C@@H]1CN(CC1CC1)CC1CC1		inconclusive: 3.55 µM [inhibitor, partial curve, poor fit]	
CC(C)(C)c1ccc(C(=O)NCC(c2ccc(Cl)cc2)N2CCOCC2)cc1 (stereo not drawn)		inconclusive: 14.1 µM [inhibitor, single point]	
